Assay [1] concerns bovine respiratory syncytial virus (BRSV). The note with it: BT cells.
Assay [2] relates to porcine reproductive and respiratory syndrome virus (PRRSV).
In assay [3] the test system is bovine coronavirus (BCV).
The subject of assay [4] is bovine viral diarrhea virus (BVDV). The settings on record: MDBK cells, 24-h time point.

This is an account of results in patent US20240261312A1 (priority 2021, published 2024).

Values joined by “and” are separate entries in the source; they are usually repeats but may differ in a detail not shown here. Equal entries are not always repeated.

Regarding `CO[C@H]1C[C@H](O[C@H]2CC[C@@]3(C)[C@H](CC[C@@H]4[C@@H]3CC[C@]3(C)[C@@H](C5=CC(=O)OC5)[C@@H](OC(C)=O)C[C@]43O)C2)O[C@@H](C)[C@@H]1O` [oleandrin], the “concentration range over which efficacious” value in assay [1] (BRSV, therapeutic) was at least 0.005 µg/mL; in assay [2] (PRRSV, MARC 145 cells, therapeutic), at least 0.05 µg/mL. In addition, the “reduction in viral infectivity” value in assay [1] (24-h time point and 48-h time point) is 62-100%; in assay [3], 98-100% and 99-100%. Moreover, in assay [2] (24-48 h time period, 0.01 to 1 ug/ml oleandrin), the “inhibition of viral infectivity of progeny virus to new cells” value was 78-98%. Also, in assay [4], the “inhibition of viral infectivity relative to control” value is given as 91-94%.
